Biological target: the molecule itself
Test: SEC-MALS; 250 ug injected, 40 uM monomer; Superdex-200 (WT and P182L HSP27) or Superdex-75 (cHSP27 C137S); 30 mM sodium phosphate, 100 mM NaCl, 2 mM EDTA, pH 7

| Protein | stoichiometry N |
| --- | --- |
| cHSP27 with the C137S mutation (domain or fragment, HSP27 (HSPB1), human, alpha-crystallin domain, […], C137S; Used for SEC-MALS; the tag and its cleavage are told for cHSP27 in general; also called cHSP27(C137S); source: E. coli, purified as described previously (Alderson et al, 2019); not shown: His6, N-terminal, cleaved) not shown | 2 |
| full-length P182L variant of HSP27 (natural protein, HSP27 (HSPB1), human, […], with the CMT disease-causing mutation P182L; Oligomers of on average ca. 620 subunits by SEC-MALS; also called P182L HSP27; source: E. coli, inclusion bodies solubilized in 8 M urea, dialyzed, Superdex 200 gel filtration) not shown | ~620 subunits |
